Data on 39 molecules can be found in the supplement of paper PMC9446081.

Molecules are shown by their SMILES. The campaign covered roughly 39,000 compounds. About 220 (0.56%) showed activity. The list shows a part of the results.
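Further: static incubation at 37 °C against the wild-type strain, values averaged over two biological replicates.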

For the assay, the system named is Escherichia coli K-12 BW25113. Briefly: relative growth (OD600 normalised to plate interquartile mean) (fraction); higher = less growth inhibition, active = 0.2 or less. The conditions noted are these: 50 µM; LB; incubation time: overnight (16-24 h).
As to `C[C@@H]1CN([C@@H](C)CO)C(=O)c2cc(NC(=O)CCCCCC(=O)Nc3ccccc3N)ccc2O[C@H]1CN(C)S(=O)(=O)c1cn(C)cn1`, the relative growth is inactive: 0.999.

Consider `O=C(N[C@@H](c1ccccc1)c1ccc2ccccc2n1)C1CCN(CCOc2ccc(Cl)cc2)CC1`, for which the relative growth is inactive: 0.976.

In the case of `C[C@@H]1CCCCO[C@@H](CN(C)Cc2ccc(C(F)(F)F)cc2)[C@H](C)CN([C@H](C)CO)C(=O)c2cc(NC(=O)c3ccncc3)ccc2O1`, the relative growth is inactive: 0.982.

Take `C[C@@H]1CN([C@H](C)CO)C(=O)c2cccc(NC(=O)Nc3ccc4c(c3)OCO4)c2O[C@H]1CN(C)Cc1ccc(Oc2ccccc2)cc1`: the relative growth is inactive: 1.01.

`OC[C@@H]1CC[C@@H]2O[C@H](CCc3ccc(C#Cc4ccccc4)cc3)[C@@H](n3cc(-c4ccccc4)nn3)C[C@@H]2O1`: the relative growth is inactive: 1.02.

For `C[C@H](CO)N1C[C@H](C)[C@H](CN(C)C(=O)N[C@H](C)c2ccccc2)OCc2ccccc2-c2c(n(C)c3ccccc23)C1=O`, the relative growth is inactive: 0.978.

In the case of `C[C@H]1CN([C@@H](C)CO)C(=O)c2cccc(NC(=O)Nc3ccccc3)c2O[C@@H]1CN(C)C(=O)Nc1cccc2ccccc12`, the relative growth was inactive: 1.01.

With `CCCCCCCCCCCCCCCC(=O)NCCO`, the relative growth is inactive: 1.07.

For `OCCC12CC3CC(CC(C3)C1)C2`, the relative growth was inactive: 1.01.

On to `C[C@@H]1CN([C@H](C)CO)C(=O)c2cccc(NC(=O)C3CCOCC3)c2O[C@@H]1CN(C)Cc1ccc2c(c1)OCO2`, for which the relative growth is inactive: 0.977.

Regarding `C[C@@H]1CN([C@H](C)CO)C(=O)c2cccc(NC(=O)Nc3cccc4ccccc34)c2O[C@H]1CN(C)C(=O)Nc1ccc(F)cc1`, the relative growth was inactive: 0.999.

Take `C[C@H]1CN([C@@H](C)CO)C(=O)c2cc(NS(=O)(=O)c3cn(C)cn3)ccc2O[C@@H]1CN(C)S(=O)(=O)c1ccc(F)cc1`: the relative growth is inactive: 1.02.

As to `CN1CCc2nc(C(=O)NC3CC(C(=O)N(C)C)CCC3NC(=O)C(=O)Nc3ccc(Cl)cn3)sc2C1.Cc1ccc(S(=O)(=O)O)cc1.O` (centres undefined), the relative growth is inactive: 1.01.

Take `C[C@H]1CN([C@@H](C)CO)C(=O)c2cc(NC(=O)Nc3cccc4ccccc34)ccc2O[C@@H]1CN(C)S(=O)(=O)c1cccs1`: the relative growth is inactive: 1.

On to `COc1ccc(S(=O)(=O)Nc2ccc3c(c2)CC(=O)N([C@@H](C)CO)C[C@H](C)[C@@H](CN(C)S(=O)(=O)c2cccs2)O3)cc1`, for which the relative growth was inactive: 0.989.

On to `C[C@H]1CN([C@@H](C)CO)C(=O)c2cc(NC(=O)C3CC3)ccc2O[C@@H]1CN(C)S(=O)(=O)c1ccc(Cl)cc1`, for which the relative growth was inactive: 0.989.

On to `O=C(C[C@H]1C=C[C@@H](NC(=O)CN2CCOCC2)[C@H](CO)O1)NC1CCCCC1`, for which the relative growth is inactive: 1.01.

Regarding `Cc1c(C(=O)OCC(=O)N(CC(C)C)c2c(N)n(Cc3ccccc3)c(=O)[nH]c2=O)oc2ccccc12`, the relative growth was inactive: 1.02.

For `COc1ccc(S(=O)(=O)Nc2ccc3c(c2)C(=O)N([C@H](C)CO)C[C@H](C)[C@H](CN(C)S(=O)(=O)c2cn(C)cn2)OCCCC[C@@H](C)O3)cc1`, the relative growth was inactive: 0.991.

In the case of `CC(=O)OCC1=C[C@@H]2OC(=O)C3=CO[C@@H](O[C@H]4O[C@H](CO)[C@@H](O)[C@H](O)[C@H]4O)[C@H]1[C@@H]32`, the relative growth was inactive: 1.01.

`CCCNC(=O)N(C)C[C@@H]1Oc2cc(C#Cc3ccccn3)ccc2S(=O)(=O)N([C@@H](C)CO)C[C@H]1C`: the relative growth was inactive: 1.02.

`CSc1scc(-c2cc(Cl)cc(Cl)c2)c1C#N`: the relative growth was inactive: 1.01.

Regarding `Cc1ccc(S(=O)(=O)N(C)C[C@@H]2Oc3ccc(NS(=O)(=O)c4cccs4)cc3C(=O)N([C@H](C)CO)C[C@H]2C)cc1`, the relative growth was inactive: 1.01.

Turning to `CO[C@H]1/C=C/C[C@H](C)[C@@H](C)S(=O)(=O)NC(=O)c2ccc3c(c2)N(C[C@@H]2CC[C@H]21)C[C@@]1(CCCc2cc(Cl)ccc21)CO3`, the relative growth was inactive: 0.964.

As to `NC(=O)c1ncn(C2OC(CO)C(O)C2O)n1` (centres undefined), the relative growth was inactive: 0.645.

As for `CC(C)C#Cc1ccc2c(c1)O[C@H](CN(C)C(=O)c1cccc(F)c1)[C@H](C)CN([C@H](C)CO)S2(=O)=O`, the relative growth was inactive: 0.968.

In the case of `C[C@H](CO)N1C[C@H](C)[C@H](CN(C)C(=O)Nc2ccc(C(F)(F)F)cc2)OCCCC[C@H](C)Oc2ccc(NS(=O)(=O)c3cn(C)cn3)cc2C1=O`, the relative growth is inactive: 0.933.

For the molecule `Nc1cc([N+](=O)[O-])ccc1C(=O)O`, the relative growth was inactive: 1.01.

As for `C[C@H](CO)N1C[C@H](C)[C@@H](CN(C)S(=O)(=O)c2ccc(Cl)cc2)Oc2c(NC(=O)C3CCOCC3)cccc2C1=O`, the relative growth is inactive: 0.977.

As to `Cc1noc(C)c1S(=O)(=O)Nc1cccc2c1O[C@H](CN(C)C(=O)Nc1ccccc1)[C@H](C)CN([C@@H](C)CO)C2=O`, the relative growth was inactive: 0.994.

As to `N[C@@H](Cc1ccc(O)c(O)c1)C(=O)O`, the relative growth is inactive: 0.862.

`Cc1ccc(S(=O)(=O)Nc2ccc3c(c2)C(=O)N([C@H](C)CO)C[C@@H](C)[C@@H](CN(C)C(=O)CCC(F)(F)F)OCCCC[C@H](C)O3)cc1`: the relative growth was inactive: 0.982.

For the molecule `C[C@@H]1CN([C@H](C)CO)C(=O)Cc2cc(NS(C)(=O)=O)ccc2O[C@H]1CN(C)Cc1ccc(C(F)(F)F)cc1`, the relative growth is inactive: 0.965.

In the case of `C[C@H](CO)N1C[C@H](C)[C@H](CN(C)S(=O)(=O)c2ccccc2)Oc2ncc(-c3cccc(F)c3)cc2C1=O`, the relative growth is inactive: 0.979.

Regarding `CCCCCC(CC(=O)O)C(=O)O` (centres undefined), the relative growth was inactive: 0.973.

For the molecule `C=CCOC[C@H](O)Cn1c(N2CCOCC2)nc2c1c(=O)n(C)c(=O)n2C`, the relative growth is inactive: 0.988.

As for `C[C@@H]1CN([C@@H](C)CO)C(=O)c2cc(C#C[C@@H](C)O)cnc2O[C@@H]1CN(C)Cc1cncnc1`, the relative growth is inactive: 0.982.

With `C[C@H](CO)N1C[C@H](C)[C@H](CN(C)C(=O)Nc2cccc3ccccc23)Oc2ccc(NC(=O)Nc3ccc(F)cc3)cc2C1=O`, the relative growth was inactive: 1.03.

In the case of `C[C@H]1CCCCO[C@@H](CN(C)C(=O)C2CCCCC2)[C@@H](C)CN([C@@H](C)CO)C(=O)c2cc(NC(=O)Nc3ccc(C(F)(F)F)cc3)ccc2O1`, the relative growth is inactive: 1.11.
